# Data reported in paper PMC9911399, “Two distinct binding modes provide the RNA-binding protein RbFox with extraordinary sequence specificity”.
# Changes are numbered by the printed parent chain; changes in the protein carry UniProt numbers. This is one part of the list.
# T1: RBFOX1 RRM RbFoxmut (Fox-RRM*) (Homo sapiens, UniProt Q9NWB1 109-208, R118D;E147R;N151S;E152T)
# T1 sequence: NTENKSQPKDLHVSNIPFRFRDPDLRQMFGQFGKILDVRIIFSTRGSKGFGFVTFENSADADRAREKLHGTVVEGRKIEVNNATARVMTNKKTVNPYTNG
# B1: UUGAAGG (DNA:RNA)
# RNA: GGGAGACCGGAAUUCAGAUUGUCCUUGAAGGUUAAAUCCCGUCGUAGCCACCA
# DNA 1: CAATCTGAATTCCGGTCTCCC
# DNA 2: TGGTGGCTACGACGGGATT
# B2: AGCUUCC (DNA:RNA)
# RNA: GGGAGACCGGAAUUCAGAUUGUCCAGCUUCCUUAAAUCCCGUCGUAGCCACCA
# DNA 1: CAATCTGAATTCCGGTCTCCC
# DNA 2: TGGTGGCTACGACGGGATT
# B3: AACGACC (DNA:RNA)
# RNA: B2 RNA with G26A, U28G, U29A
# DNA 1: CAATCTGAATTCCGGTCTCCC
# DNA 2: TGGTGGCTACGACGGGATT
# B4: AUGCUCA (DNA:RNA)
# RNA: B2 RNA with G26U, C27G, U28C, C31A
# DNA 1: CAATCTGAATTCCGGTCTCCC
# DNA 2: TGGTGGCTACGACGGGATT
# B5: GAUUCGG (DNA:RNA)
# RNA: B1 RNA with U25G, U26A, G27U, A28U, A29C
# DNA 1: CAATCTGAATTCCGGTCTCCC
# DNA 2: TGGTGGCTACGACGGGATT
# B6: CCGCAAC (DNA:RNA)
# RNA: B1 RNA with U25C, U26C, A28C, G30A, G31C
# DNA 1: CAATCTGAATTCCGGTCTCCC
# DNA 2: TGGTGGCTACGACGGGATT
# B7: GUGAAAA (DNA:RNA)
# RNA: B1 RNA with U25G, G30A, G31A
# DNA 1: CAATCTGAATTCCGGTCTCCC
# DNA 2: TGGTGGCTACGACGGGATT
# B8: UUAGCCU (DNA:RNA)
# RNA: B1 RNA with G27A, A28G, A29C, G30C, G31U
# DNA 1: CAATCTGAATTCCGGTCTCCC
# DNA 2: TGGTGGCTACGACGGGATT
# B9: UUAUUCG (DNA:RNA)
# RNA: B2 RNA with A25U, G26U, C27A, C31G
# DNA 1: CAATCTGAATTCCGGTCTCCC
# DNA 2: TGGTGGCTACGACGGGATT
# B10: UCUGGGU (DNA:RNA)
# RNA: B1 RNA with U26C, G27U, A28G, A29G, G31U
# DNA 1: CAATCTGAATTCCGGTCTCCC
# DNA 2: TGGTGGCTACGACGGGATT
# B11: ACCGUAC (DNA:RNA)
# RNA: B2 RNA with G26C, U28G, C30A
# DNA 1: CAATCTGAATTCCGGTCTCCC
# DNA 2: TGGTGGCTACGACGGGATT
# B12: CAAUACU (DNA:RNA)
# RNA: B2 RNA with A25C, G26A, C27A, U29A, C31U
# DNA 1: CAATCTGAATTCCGGTCTCCC
# DNA 2: TGGTGGCTACGACGGGATT
# B13: GCAGCAC (DNA:RNA)
# RNA: B2 RNA with A25G, G26C, C27A, U28G, U29C, C30A
# DNA 1: CAATCTGAATTCCGGTCTCCC
# DNA 2: TGGTGGCTACGACGGGATT
# B14: ACCCUUG (DNA:RNA)
# RNA: B2 RNA with G26C, U28C, C30U, C31G
# DNA 1: CAATCTGAATTCCGGTCTCCC
# DNA 2: TGGTGGCTACGACGGGATT
# B15: AGGCUCC (DNA:RNA)
# RNA: B2 RNA with C27G, U28C
# DNA 1: CAATCTGAATTCCGGTCTCCC
# DNA 2: TGGTGGCTACGACGGGATT
# B16: CUCCGAA (DNA:RNA)
# RNA: B2 RNA with A25C, G26U, U28C, U29G, C30A, C31A
# DNA 1: CAATCTGAATTCCGGTCTCCC
# DNA 2: TGGTGGCTACGACGGGATT
# B17: ACAACUU (DNA:RNA)
# RNA: B2 RNA with G26C, C27A, U28A, U29C, C30U, C31U
# DNA 1: CAATCTGAATTCCGGTCTCCC
# DNA 2: TGGTGGCTACGACGGGATT
# B18: UGGAACC (DNA:RNA)
# RNA: B1 RNA with U26G, G30C, G31C
# DNA 1: CAATCTGAATTCCGGTCTCCC
# DNA 2: TGGTGGCTACGACGGGATT
# B19: CAUGCUC (DNA:RNA)
# RNA: B2 RNA with A25C, G26A, C27U, U28G, U29C, C30U
# DNA 1: CAATCTGAATTCCGGTCTCCC
# DNA 2: TGGTGGCTACGACGGGATT
# B20: UAUAACC (DNA:RNA)
# RNA: B1 RNA with U26A, G27U, G30C, G31C
# DNA 1: CAATCTGAATTCCGGTCTCCC
# DNA 2: TGGTGGCTACGACGGGATT
# Biological target: T1, RBFOX1 RRM RbFoxmut (Fox-RRM*)
# Assay: EMSA; HiTS-Eq, 1 nM pool, 10 min; buffer printed only for the single-RNA assays: 10 mM Tris pH 7.5, 150 mM NaCl, 3.4 mM EDTA, 0.001% NP-40, 30 C
# Conditions: tags: His6 N-terminal (pET28a); label: 5' 32P
# Summary of the method: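 Purified wild-type or mutant RbFox RRM at increasing concentrations was equilibrated with 1 nM of 5′-radiolabelled RNA carrying 7 randomized nucleotides for 10 min in 50 µL. Unbound RNA was separated by 8% native PAGE and sequenced. Relative association constants came from read-count changes of each RNA species compared with the control reaction, normalised to the cognate motif.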
row,Binder,binding signal
1,B1,0.0887 KA relative to UGCAUGU
2,B2,0.0581 KA relative to UGCAUGU
3,B3,0.0712 KA relative to UGCAUGU
4,B4,0.1 KA relative to UGCAUGU
5,B5,0.0755 KA relative to UGCAUGU
6,B6,0.0882 KA relative to UGCAUGU
7,B7,0.095 KA relative to UGCAUGU
8,B8,0.0889 KA relative to UGCAUGU
9,B9,0.122 KA relative to UGCAUGU
10,B10,0.0963 KA relative to UGCAUGU
11,B11,0.126 KA relative to UGCAUGU
12,B12,0.116 KA relative to UGCAUGU
13,B13,0.084 KA relative to UGCAUGU
14,B14,0.117 KA relative to UGCAUGU
15,B15,0.0889 KA relative to UGCAUGU
16,B16,0.104 KA relative to UGCAUGU
17,B17,0.0702 KA relative to UGCAUGU
18,B18,0.196 KA relative to UGCAUGU
19,B19,0.0741 KA relative to UGCAUGU
20,B20,0.0973 KA relative to UGCAUGU
